Hit rate of the full screen: of about 48,000 compounds, about 120 (0.25%) were called active. Not shown: some 4% with an inconclusive outcome. The call rests on the fitted dose curve; in most records, active means well fitted activation curve with a large enough effect; inconclusive means small, poorly fitted or top-dose-only effect, or another doubt; inactive means no such curve, though single readings can be large or run the other way. The list shows a part of the results.
assay: Primary qHTS for Identification of Small Molecule Activators of Huntingtin-Antisense Promoter Activity; conditions: HEK293 HTT-AS promoter firefly luciferase reporter, 24 h; series mostly up to 57.5 µM; activity change, positive = activation: at the top concentration; further: nearly all actives have a fitted effect of over 55% in size
Outline: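 Luminescence was read after Dual-Glo reagent and a 10 min room-temperature incubation. Values were normalized to vehicle (0% activity) and zero RLU (-100% activity). Reporter HEK293 cells had been exposed to compounds (up to 57.5 uM final) for 24 h.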

Activity change, positive = activation, inactive:
COC(=O)c1ccc(NC(=O)CCc2c(C)nc3c(c2C)c(=O)n(C)c(=O)n3C)cc1 -12.5%
COc1ccccc1Cc1nc2ccccc2nc1SCC(=O)Nc1cccc(Cl)c1C -9.89%
COc1cc(NC(=O)CSC2=Nc3ccccc3N=C(c3ccc(F)cc3)C2)cc(OC)c1 -22.8%
COc1ccc(CNC(=O)c2cnc3cc(C)ccn3c2=O)cc1 30.9%
COc1ccccc1N1CCN(C(=O)CCNS(=O)(=O)c2ccc3c(c2)CCN3C(=O)C2CC2)CC1 -16.2%
COc1ccc(Cl)cc1NC(=O)CSC1=Nc2ccccc2C2=NC(CC(=O)NCc3ccc4c(c3)OCO4)C(=O)N12 (stereo not given) -23.5%
Cc1ccc(NC(=O)c2cnc(SCC(=O)Nc3cc(C)on3)n(C)c2=O)cc1 4.8%
Cc1ccc(CNC(=O)Cn2cc(S(=O)(=O)Cc3ccccc3F)c3ccccc32)cc1 -11.7%
C=CCc1ccccc1OCC(O)CN1CCN(c2ccccc2)CC1 (stereo not given) -8.42%
COc1ccccc1C(=O)Nc1ccc2c(c1)nc(CN1CCCCC1)n2C -26.3%
Cc1cc(C)n2nc(SCC(=O)Nc3cccc(C(F)(F)F)c3)nc2n1 -33.3%
CCn1c(=O)n(CC)c2cc(N3CCCCC3)c(NC(=O)Nc3ccccc3C(F)(F)F)cc21 -34.4%
CCC(Oc1ccc(F)cc1)C(=O)Nc1nc(-c2ccc(F)cc2)ns1 (stereo not given) -45.2%
CCOC(=O)c1ccc(NC(=O)CC2C(=O)N(c3cccc(OC)c3)C(=O)N2Cc2ccc(OC)cc2)cc1 (stereo not given) -8.69%
CCc1ccc(-c2csc(-c3cc4cc(Br)ccc4oc3=O)n2)cc1 -27.1%
COc1ccc(C(=O)Nc2nnc(S(=O)(=O)N3CCOCC3)s2)cc1 -15.4%
Cc1nn(C(C)C(=O)NCc2cccc(F)c2)c(=O)c2c1sc1ccccc12 (stereo not given) -11.4%
CCN(CC)C(=O)Cn1cc(SCC(=O)Nc2ccc(C)cc2)c2ccccc21 -0.861%
Cc1ccc(C)c(N2CCN(C(=O)Cn3nc(Cc4cccnc4)c4ccccc4c3=O)CC2)c1 -37.5%
COc1ccc(C)cc1NC(=O)C(NS(=O)(=O)c1cccc2nsnc12)c1ccccc1 (stereo not given) -9.79%
CCOC(=O)N1CCc2c(sc3c2c(=O)n(-c2ccc(Cl)cc2)c(=O)n3CC(=O)Nc2ccccc2)C1 -4.96%
CCOCN(C(=O)CSc1nc2ccccc2[nH]1)c1c(C)cccc1CC -38.1%
O=C(c1ccccc1)c1ccc2nc(Nc3ccccc3Cl)c3nncn3c2c1 -21%
CCCCN(CC)C(=O)Cn1nc(C)c2c(C)n(-c3ccccc3)nc2c1=O 16.1%
CCOC(=O)c1c(C)oc2nc(C)nc(NCc3cccc(OC)c3)c12 -14.8%
CCOC(=O)c1cc(OC(=O)c2ccc(OC)c(OC)c2)n(-c2ccccc2)n1 -3.38%
C[C@H](CS)C(=O)N1CCC[C@H]1C(=O)O -10.7%
COc1ccccc1CNC(=O)CCCn1c(=O)c2ccccc2n(Cc2ccccc2F)c1=O -3.07%
Cc1ccc(N2CC(C(=O)Nc3ccc(Cl)cc3Cl)CC2=O)cc1 (stereo not given) -5.73%
Cc1cccc(Cn2c(SCc3ccc(C(=O)NC4CCCCC4)cc3)nc3cccnc32)c1 -32.8%
COc1ccccc1NC(=O)CCNS(=O)(=O)c1ccc2c(c1)CCCC(=O)N2 -11.4%
CCn1c(=O)cc(SCC(=O)N2CCN(c3cc(C)ccc3C)CC2)c2ccccc21 -22%
Cc1nc2cccnc2n1-c1cccc(C(=O)NCCc2ccc(Cl)cc2)c1 -29%
N#Cc1ccccc1NC(=O)C(=O)NCC(c1ccc2c(c1)OCO2)N1CCN(c2ccccc2)CC1 (stereo not given) -5.15%
COc1cc(CN2CCc3nc(N4CCN(c5ccccc5F)CC4)ncc3C2)ccc1OC(C)C -36.7%
CCC(=O)N1CCCc2cc(S(=O)(=O)Nc3ccc(C)c(C)c3)ccc21 -31%
CCCCN(CC)C(=O)Cn1c(=O)n(-c2ccc(OCC)cc2)c(=O)c2c3c(sc21)CCCC3 -30.9%
O=C(Nc1ccc2nc(SCC(=O)N3CCCc4ccccc43)sc2c1)c1ccc(F)cc1 -30.8%
Cc1c(C(=O)Nc2ccc(Br)cc2F)sc2ncnc(N(C)C3CCCCC3)c12 -10.3%
CCOC(=O)c1c(C)[nH]c(C)c1S(=O)(=O)NCC(=O)N(C)c1ccc(C)c(C)c1 -2.1%
Cn1cnc(S(=O)(=O)N2CCC(C(=O)N3CCN(c4cccc(C(F)(F)F)c4)CC3)CC2)c1 -5.72%
O=C(Nc1c(C(=O)c2ccccc2)oc2ccccc12)c1cc(=O)c2ccccc2o1 3.63%
COc1ccc(NC(=O)CSc2nc(-c3ccccc3)nc3cc(=O)[nH]n23)cc1 3.42%
CC(C)(C)c1ccc(NC(=O)CSc2nnc3scc(-c4ccccc4)n23)cc1 -25.6%
CSc1ncc(C(=O)Nc2ccccc2C(=O)c2ccccc2)c(C)n1 -13.9%
CCOC(=O)c1cnc2c(OC)cccc2c1Nc1cccc(O)c1 -34%
CCn1c2ccc(F)cc2c2nnc(SCCN3CCCCC3)nc21 -17.8%
Nc1nc(N)c2nc(-c3cccc(O)c3)c(-c3cccc(O)c3)nc2n1 -1.92%
Cc1cccc(CNC(=O)C2CCN(c3nc4ccc(Cl)cc4[nH]3)CC2)c1 -15.1%
Cc1cc(C)c2c(C)c(C(=O)N3CCC(c4nc5ccccc5s4)CC3)oc2c1 -23% [at 11.5 µM, percent change from vehicle, -100% = no light]
COc1ccc(C2Nc3ccccc3-c3nnc(SC)nc3O2)cc1C (stereo not given) -4.91%
COc1cc(C2c3c(oc4ccc(C)cc4c3=O)C(=O)N2Cc2ccc(F)cc2)ccc1O (stereo not given) -17.9%
Cc1ccc(C(=O)Nc2ccccc2F)cc1S(=O)(=O)N1CCOCC1 6.66%
CC1(C)O[C@@H]2C[C@H]3[C@@H]4C[C@H](F)C5=CC(=O)C=C[C@]5(C)[C@H]4[C@@H](O)C[C@]3(C)[C@]2(C(=O)CO)O1 -21.2%
Cc1ccc(NC(=O)CCC(=O)N2CCOc3ccccc32)c(Cl)c1 8.41%
CCc1nn2c(=O)cc(COC(=O)CNC(=O)c3ccccc3)nc2s1 -11.8%
O=C(Nc1ccc(Br)cc1)C1CCN(c2cnccn2)CC1 -27.5%
COc1cc(OC)c(Nc2cc(C)nc3ncnn23)cc1Cl -21.3%
CCOc1ccc(C(=O)Nc2cccc(NC(=O)c3ccco3)c2)cc1Cl 0.726%
COc1ccccc1CNC(=O)c1ccc(N2CCCC2)c(NC(=O)NCc2ccccc2)c1 -14%

— PubChem BioAssay AID1508624 (National Center for Advancing Translational Sciences (NCATS), 2021)
